The record followed here is the supplement of paper PMC3724861.

This is one part of the list.

This assay has as its system T1, Caupolican (Caup) homeodomain DNA-binding domain.
T1 sequence: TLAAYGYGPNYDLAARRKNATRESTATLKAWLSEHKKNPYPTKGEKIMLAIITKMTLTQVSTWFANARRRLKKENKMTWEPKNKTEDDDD
Put plainly: PBM E-score (8-mer, recovered from the published 9-mer minima) (E-score (dimensionless, -0.5 to 0.5)); Drosophila protein; higher = stronger relative binding preference, active = 0.31 or more. The procedure: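 Protein binding microarray (PBM): in vitro transcribed/translated Caupolican (Caup) homeodomain DNA-binding domain (residues 214-303) applied at 100 nM to a universal 8-mer PBM array (Agilent AMADID 015681). The 8-mer enrichment score (E-score, range -0.5 to 0.5) was computed, and each 9-mer score is the minimum E-score of its two constituent 8-mers. The E-score is the same for a 9-mer and its reverse complement; 0.31 is the stated binding threshold.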
In the case of CGCTCAGC, the “PBM E-score” value was inactive: -0.138.

Turning to GATCGTGA, the “PBM E-score” value was inactive: 0.0591.

For CCACGTCA, the “PBM E-score” value was inactive: 0.0188.

Regarding AAACGCCT, the “PBM E-score” value is inactive: -0.02.

Regarding CAGATACG, the “PBM E-score” value is inactive: -0.0468.

On to AGATATGA, for which the “PBM E-score” value was inactive: 0.0393.

With GGACATCA, the “PBM E-score” value is inactive: 0.234.

For the sequence AAAAAGTT, the “PBM E-score” value was inactive: 0.0271.

In the case of AGATGTTA, the “PBM E-score” value is inactive: 0.286.

Consider TGAATTCA, for which the “PBM E-score” value is inactive: 0.0887.

With AGAAACGC, the “PBM E-score” value is inactive: -0.0779.

On to ATGTCCGG, for which the “PBM E-score” value was inactive: 0.139.

Take AAAGGAGA: the “PBM E-score” value is inactive: -0.0827.

On to GCTTGACC, for which the “PBM E-score” value is inactive: -0.0615.

As for GGAAGCGA, the “PBM E-score” value is inactive: -0.0872.

As for ACCGGCTA, the “PBM E-score” value was at least -0.0645.

For the sequence AAGGATAA, the “PBM E-score” value is inactive: 0.0717.

In the case of GTGTTAAA, the “PBM E-score” value was inactive: 0.246.

Take ATATTAGA: the “PBM E-score” value is inactive: 0.168.

For the sequence CCATGCCG, the “PBM E-score” value was inactive: -0.0587.

For the sequence AAAGACTC, the “PBM E-score” value was inactive: -0.0151.

Regarding CCAAGGTA, the “PBM E-score” value is inactive: -0.00354.

In the case of GGCAGGTA, the “PBM E-score” value was inactive: -0.126.

With ATAGAGCC, the “PBM E-score” value was inactive: -0.124.

As for GCGACGGA, the “PBM E-score” value was inactive: -0.0825.

Regarding ACAGGAGG, the “PBM E-score” value was inactive: -5e-05.

On to AGATATAC, for which the “PBM E-score” value is inactive: 0.103.

AATGGAGG: the “PBM E-score” value is inactive: -0.102.

In the case of CTGCGAAC, the “PBM E-score” value was inactive: -0.0168.

On to AAGGACAG, for which the “PBM E-score” value is inactive: -0.00712.

On to ATATCGTA, for which the “PBM E-score” value is inactive: 0.068.

As to GTTAGGTA, the “PBM E-score” value was inactive: 0.141.

In the case of GCACGTAA, the “PBM E-score” value was inactive: 0.0741.

In the case of CGCTATAG, the “PBM E-score” value was inactive: -0.025.

Consider ATCCGCAG, for which the “PBM E-score” value was inactive: -0.0072.

Take GTCTTCCA: the “PBM E-score” value is inactive: -0.109.

As to ACGATAAT, the “PBM E-score” value was at least 0.183.

Take ATAATTAC: the “PBM E-score” value is inactive: 0.213.

For the sequence ACATAATG, the “PBM E-score” value was inactive: 0.263.

Regarding GGGGCCTA, the “PBM E-score” value is inactive: -0.286.

Take CTATCAAG: the “PBM E-score” value is inactive: 0.00356.

In the case of GTCTTCAC, the “PBM E-score” value was inactive: -0.136.

Consider GTAGTAAA, for which the “PBM E-score” value is inactive: 0.172.

Regarding CTATCAGA, the “PBM E-score” value was inactive: -0.0505.

On to ACGCGCGC, for which the “PBM E-score” value was inactive: -0.0615.

AAACCCCA: the “PBM E-score” value was at least -0.0114.

As to AGCATTAA, the “PBM E-score” value was inactive: 0.103.

Turning to CTGTGGTC, the “PBM E-score” value was inactive: -0.0302.

Regarding ACGACCAG, the “PBM E-score” value was at least 0.124.

As to TGTATTAA, the “PBM E-score” value was inactive: 0.235.

In the case of CGATATTC, the “PBM E-score” value was inactive: -0.0778.

Regarding AATACATG, the “PBM E-score” value is active: 0.424.

For the sequence ACCTCTAA, the “PBM E-score” value was inactive: -0.00946.

AGGCTGGG: the “PBM E-score” value was inactive: -0.186.

As to ATCCGAAT, the “PBM E-score” value was at least 0.074.

As to CTGTGATA, the “PBM E-score” value was inactive: 0.0638.

With AGCAGGAA, the “PBM E-score” value is inactive: 0.0483.

As to CCGGAACG, the “PBM E-score” value was inactive: -0.115.

For AAGGATCT, the “PBM E-score” value was inactive: -0.00914.

In the case of CGAAACTC, the “PBM E-score” value is inactive: -0.0915.

On to ATAGACTG, for which the “PBM E-score” value was inactive: 0.0292.

Consider AGTCAGGC, for which the “PBM E-score” value is inactive: -0.0766.

Regarding CATCTGAA, the “PBM E-score” value is inactive: 0.0826.

With GAATCATC, the “PBM E-score” value was inactive: 0.094.

For GGCGGTTA, the “PBM E-score” value was inactive: -0.105.

Turning to GCTCGTAC, the “PBM E-score” value was inactive: 0.119.

As to ACCGATTC, the “PBM E-score” value is inactive: -0.0481.

In the case of GCAAGAGA, the “PBM E-score” value was inactive: -0.0921.

Turning to TCGAACCA, the “PBM E-score” value was inactive: -0.03.

For the sequence CGTCGTCA, the “PBM E-score” value was inactive: -0.0203.

On to CCGCTTCA, for which the “PBM E-score” value was inactive: -0.12.

For the sequence AGAGAGAT, the “PBM E-score” value is inactive: 0.0266.

For the sequence GGCCCGAA, the “PBM E-score” value was inactive: -0.184.

With ATGGGTTA, the “PBM E-score” value is inactive: 0.0982.

Turning to GGTCCAAA, the “PBM E-score” value was inactive: -0.052.

Regarding ATTTTAGA, the “PBM E-score” value is inactive: 0.0139.

Turning to AGACCCAC, the “PBM E-score” value was inactive: -0.152.

Consider AGCACGCC, for which the “PBM E-score” value was inactive: -0.187.

For the sequence GCAGACAA, the “PBM E-score” value is inactive: 0.116.

CAGACTTC: the “PBM E-score” value was inactive: -0.0341.

ACTCTCGC: the “PBM E-score” value is inactive: -0.115.

CCGACTGC: the “PBM E-score” value was inactive: -0.139.

For ATCTGCAA, the “PBM E-score” value was inactive: 0.0673.

For ACTCAGCT, the “PBM E-score” value was inactive: -0.0505.

As to AGGAACGA, the “PBM E-score” value is inactive: -0.038.

Regarding ACCGCGCT, the “PBM E-score” value was inactive: -0.108.

As to ACTGCGGA, the “PBM E-score” value was inactive: -0.03.

With CGCGAAGA, the “PBM E-score” value was inactive: -0.0746.

For AGTTTCCC, the “PBM E-score” value was inactive: -0.127.

For the sequence ACTTTTAA, the “PBM E-score” value was inactive: 0.0462.

In the case of CCACGAGC, the “PBM E-score” value is inactive: -0.122.

For the sequence GATCGGGC, the “PBM E-score” value was inactive: -0.15.

As for CCTGTAAA, the “PBM E-score” value is inactive: 0.131.

With CCCTGAAA, the “PBM E-score” value was inactive: -0.0553.

Regarding AAAGCCAA, the “PBM E-score” value was inactive: -0.0847.

On to AGATATGG, for which the “PBM E-score” value is inactive: 0.106.

Turning to CCAGAGGG, the “PBM E-score” value is inactive: -0.281.

On to GATCCTAA, for which the “PBM E-score” value was inactive: 0.0403.

For ATCTTTGG, the “PBM E-score” value was inactive: -0.0471.

In the case of ATTCGAGG, the “PBM E-score” value was inactive: -0.0796.

On to CTCAACAA, for which the “PBM E-score” value was inactive: 0.178.

As for GAATCGTC, the “PBM E-score” value was inactive: -0.134.

Turning to CGGTTGGC, the “PBM E-score” value is inactive: -0.17.

Regarding CTTGGTAA, the “PBM E-score” value is inactive: 0.0467.

For GGCAGAAC, the “PBM E-score” value is inactive: -0.044.

With AGTCTAGC, the “PBM E-score” value is inactive: -0.122.

For GACATCCC, the “PBM E-score” value is inactive: 0.22.

Take AATATAAA: the “PBM E-score” value was inactive: 0.17.

Take ATATTACA: the “PBM E-score” value is active: 0.35.

ACTGAAGG: the “PBM E-score” value was inactive: -0.0463.

For AAACCTGA, the “PBM E-score” value is inactive: 0.0633.

As for GCGCTTGA, the “PBM E-score” value was inactive: -0.0585.

Turning to CTAGGTGA, the “PBM E-score” value is inactive: 0.00772.

Consider CAGTGCAG, for which the “PBM E-score” value is inactive: -0.113.

In the case of CGTAGCCA, the “PBM E-score” value was inactive: -0.0662.

For ACGCACGC, the “PBM E-score” value is inactive: -0.0707.

Turning to ATGGTAAT, the “PBM E-score” value is inactive: 0.224.

On to AGATCGTA, for which the “PBM E-score” value was inactive: 0.0125.

As for AGCCACGG, the “PBM E-score” value was inactive: -0.237.

Take AACCATGG: the “PBM E-score” value is inactive: 0.0193.

As for ATGTACAT, the “PBM E-score” value was active: ≥ 0.469.

For the sequence TTGGACAA, the “PBM E-score” value is inactive: 0.289.

On to AGCCGTCA, for which the “PBM E-score” value was inactive: -0.0842.

As to CGTACCAG, the “PBM E-score” value was inactive: -0.0187.

Turning to CGGAAACA, the “PBM E-score” value was inactive: 0.169.

For the sequence GAAGTCTC, the “PBM E-score” value is inactive: -0.118.

Turning to AGGCCGGA, the “PBM E-score” value was inactive: -0.274.

With GATACACC, the “PBM E-score” value was inactive: 0.165.

CATAGACG: the “PBM E-score” value is inactive: 0.113.

Consider ACGAACGT, for which the “PBM E-score” value is inactive: -0.00471.

ATGATCAT: the “PBM E-score” value is inactive: 0.125.

Take CAATAATC: the “PBM E-score” value was inactive: 0.102.

As to AAAGGAGG, the “PBM E-score” value was inactive: -0.2.

CGAGGGCC: the “PBM E-score” value was inactive: -0.192.

Consider CGTAAACC, for which the “PBM E-score” value was inactive: -0.0982.

Consider TGAGGTAA, for which the “PBM E-score” value was inactive: 0.0515.

Regarding ATGGGGTC, the “PBM E-score” value was inactive: -0.189.

As to GCTTAAGC, the “PBM E-score” value was inactive: -0.113.

For the sequence CTCGGATA, the “PBM E-score” value was inactive: 0.034.

As to CTTCTTTC, the “PBM E-score” value is inactive: -0.0224.

Take GCGCGAGA: the “PBM E-score” value is inactive: -0.0941.

Take CGTCAAGA: the “PBM E-score” value is inactive: -0.0961.
